From the antibiotic and cytotoxicity screens of Wong et al. (2023) come the findings set out here.

This is one part of the list.

One test deals with HSkMC. Kind of test: cytotoxicity call (relative viability < 0.9). Conditions: 10 µM.
The next test deals with HepG2. In words: cytotoxicity call (relative viability < 0.9). Particulars: 10 µM.
The subject of the next test is S. aureus RN4220. Kind of test: growth inhibition call (relative growth <= 0.2). Particulars: 50 µM.

With `O=CC(O)C(O)C(O)CO` (configuration not stated), the cytotoxicity call in the test on HSkMC and with HepG2 was “inactive” in each case. For the same compound, the growth inhibition call in the test with S. aureus RN4220 is “inactive”.

With `CC(C)NC(=O)Nc1ccc2c(c1)C(=O)N([C@H](C)CO)C[C@H](C)[C@@H](CN(C)C(=O)C1CCCCC1)OCCCC[C@@H](C)O2`, the cytotoxicity call in the test on HSkMC and in the test on HepG2 was “inactive” throughout. Moreover, in the test on S. aureus RN4220, the growth inhibition call is “inactive”.

`COc1cc(/C=C/c2cc(O)cc(O[C@@H]3O[C@H](CO)[C@@H](O)[C@H](O)[C@H]3O)c2)ccc1O[C@@H]1O[C@H](CO)[C@@H](O)[C@H](O)[C@H]1O`: the cytotoxicity call in the test with HSkMC and in the test with HepG2 was “inactive” throughout. For the same compound, the growth inhibition call in the test on S. aureus RN4220 is “inactive”.

Take `Cc1noc(C)c1S(=O)(=O)Nc1ccc2c(c1)C(=O)N([C@H](C)CO)C[C@H](C)[C@H](CN(C)Cc1ccccc1)OCCCC[C@@H](C)O2`: the cytotoxicity call with HSkMC and in the test with HepG2 was “inactive” each time. For the same compound, in the test with S. aureus RN4220, the growth inhibition call is “inactive”.

For the compound `CN1CCN(C(=O)C[C@@H]2CC[C@@H]3[C@H](COC[C@H](O)CN3Cc3ccc4c(c3)OCO4)O2)CC1`, the cytotoxicity call in the test on HSkMC and with HepG2 was “inactive” each time. Further, the growth inhibition call in the test with S. aureus RN4220 is “inactive”.

For `C[C@@H]1CCCCO[C@H](CN(C)C(=O)Nc2ccc(C(F)(F)F)cc2)[C@H](C)CN([C@@H](C)CO)C(=O)c2cc(NS(C)(=O)=O)ccc2O1`, the cytotoxicity call in the test on HSkMC and in the test on HepG2 was “inactive” throughout. In the test on S. aureus RN4220, the growth inhibition call was “inactive”.

As for `Cc1noc(C)c1S(=O)(=O)N(C)C[C@H]1Oc2ccc(NS(=O)(=O)c3ccccc3)cc2CC(=O)N([C@H](C)CO)C[C@@H]1C`, the cytotoxicity call in the test on HSkMC and in the test on HepG2 was “inactive” in each case. For the same compound, in the test on S. aureus RN4220, the growth inhibition call is “inactive”.

For the compound `C[C@@H]1CN([C@@H](C)CO)C(=O)c2cc(NC(=O)Nc3ccc4c(c3)OCO4)ccc2O[C@@H]1CN(C)Cc1ccc(Oc2ccccc2)cc1`, the cytotoxicity call in the test on HSkMC was “inactive”. For the same compound, the cytotoxicity call with HepG2 is “active”. Besides, the growth inhibition call with S. aureus RN4220 was “inactive”.

As for `Cl.Cl.OCCN1CCN(CCCN2c3ccccc3Sc3ccc(C(F)(F)F)cc32)CC1`, the cytotoxicity call with HSkMC is “inactive”. The cytotoxicity call with HepG2 is “active”. Moreover, the growth inhibition call in the test on S. aureus RN4220 is “inactive”.

As for `CO[C@@H]1CN(C)C(=O)c2ccc(NC(=O)Nc3cccc(F)c3)cc2OC[C@H](C)N(C(=O)Nc2c(C)noc2C)C[C@H]1C`, the cytotoxicity call with HSkMC and in the test on HepG2 was “inactive” in each case. The growth inhibition call with S. aureus RN4220 is “inactive”.

For `C[C@@H]1CN([C@H](C)CO)C(=O)c2cc(NC(=O)Nc3ccc(F)cc3)ccc2O[C@@H]1CN(C)Cc1ccc(C(F)(F)F)cc1`, the cytotoxicity call with HSkMC and in the test on HepG2 was “inactive” throughout. Further, in the test on S. aureus RN4220, the growth inhibition call is “inactive”.

`COCC(=O)Nc1ccc2c(c1)C(=O)N(C)C[C@@H](OC)[C@H](C)CN(C(=O)Cc1cccnc1)[C@H](C)CO2`: the cytotoxicity call in the test on HSkMC and in the test with HepG2 was “inactive” in each case. Further, the growth inhibition call in the test with S. aureus RN4220 was “inactive”.

As to `CCOC(=O)C1=C(C)NC(C)=C(C(=O)OC)C1c1cccc(Cl)c1Cl` (configuration not stated), the cytotoxicity call in the test with HSkMC and in the test with HepG2 was “inactive” in each case. Also, the growth inhibition call with S. aureus RN4220 is “inactive”.

With `C[C@H](CO)N1C[C@H](C)[C@@H](CN(C)C(=O)Nc2ccccc2)OCCCC[C@H](C)Oc2ccc(NC(=O)C3CCCCC3)cc2C1=O`, the cytotoxicity call in the test on HSkMC and in the test with HepG2 was “inactive” in each case. Also, the growth inhibition call in the test with S. aureus RN4220 is “inactive”.

Take `N[C@H]1[C@H](CCCCC(=O)O)SC[C@@H]1N`: the cytotoxicity call with HSkMC and in the test on HepG2 was “inactive” in each case. The growth inhibition call with S. aureus RN4220 was “inactive”.

For the compound `COCCOC(=O)N1C(=O)[C@@]2(c3cc(C#CCNC(N)=O)ccc31)[C@H](c1ccc(OCCO)cc1)N1[C@H](c3ccccc3)[C@H](c3ccccc3)OC(=O)[C@H]1[C@@H]2C(=O)N1CCc2cc(OC)c(OC)cc2C1`, the cytotoxicity call with HSkMC and with HepG2 was “inactive” each time. The growth inhibition call in the test on S. aureus RN4220 was “inactive”.

`O=C(C[C@@H]1CC[C@H]2[C@@H](COC[C@H](O)CN2S(=O)(=O)c2ccccc2)O1)N1CCOCC1`: the cytotoxicity call in the test on HSkMC and with HepG2 was “inactive” each time. For the same compound, the growth inhibition call in the test with S. aureus RN4220 was “inactive”.

For the compound `O=C(NCCc1ccccc1)c1nnc[nH]1`, the cytotoxicity call in the test on HSkMC and in the test with HepG2 was “inactive” throughout. In addition, the growth inhibition call in the test on S. aureus RN4220 is “inactive”.

Consider `COc1ccc(C(=O)Nc2ccc(CN3C(=O)[C@@]4(O[C@@H](CC(=O)N5CCC[C@H]5CO)[C@H]([Si](C)(C)c5ccc(OC)cc5)[C@H]4C)c4ccccc43)cc2)cc1`, for which the cytotoxicity call in the test on HSkMC and in the test with HepG2 was “inactive” each time. In addition, the growth inhibition call with S. aureus RN4220 is “inactive”.

Consider `CC(=O)NS(=O)(=O)c1ccc(N)cc1`, for which the cytotoxicity call with HSkMC was “inactive”. Also, the cytotoxicity call with HepG2 is “active”. Also, the growth inhibition call with S. aureus RN4220 is “inactive”.

Take `COC(=O)c1cnn2c(=O)c3c([nH]c12)CCC3`: the cytotoxicity call in the test with HSkMC and in the test on HepG2 was “inactive” in each case. Also, the growth inhibition call in the test on S. aureus RN4220 is “inactive”.

For the compound `Cc1cc(C(=O)Nc2cccc3c2O[C@H](CN(C)Cc2ccc(Oc4ccccc4)cc2)[C@H](C)CN([C@@H](C)CO)C3=O)n(C)n1`, the cytotoxicity call in the test with HSkMC and in the test on HepG2 was “inactive” each time. Also, in the test on S. aureus RN4220, the growth inhibition call was “inactive”.

In the case of `COc1ccc(S(=O)(=O)N(C)C[C@@H]2OCCCC[C@@H](C)Oc3ccc(NC(=O)c4ccccc4)cc3C(=O)N([C@@H](C)CO)C[C@@H]2C)cc1`, the cytotoxicity call with HSkMC and in the test on HepG2 was “inactive” each time. Also, the growth inhibition call in the test with S. aureus RN4220 is “inactive”.

Turning to `C[C@@H]1CCCCO[C@@H](CN(C)C(=O)Nc2cccc3ccccc23)[C@H](C)CN([C@H](C)CO)C(=O)c2cc(NS(=O)(=O)c3ccccc3)ccc2O1`, in the test on HSkMC (human skeletal muscle cells), the cytotoxicity call is “inactive”. Besides, the cytotoxicity call in the test with HepG2 was “active”. Further, the growth inhibition call with S. aureus RN4220 was “inactive”.

On to `CC(C)(C)OC(=O)N1CCC(N)CC1`, for which the cytotoxicity call in the test with HSkMC and in the test on HepG2 was “inactive” each time. In addition, the growth inhibition call with S. aureus RN4220 was “inactive”.

For `C[C@@H]1CCCCO[C@@H](CN(C)C(=O)Nc2cccc3ccccc23)[C@@H](C)CN([C@@H](C)CO)C(=O)c2cc(NC(=O)Cc3ccccc3)ccc2O1`, the cytotoxicity call with HSkMC and with HepG2 was “inactive” throughout. Also, the growth inhibition call in the test on S. aureus RN4220 is “inactive”.

In the case of `COc1ccc2c3c([nH]c2c1)[C@@H](CO)N(CC1CCCCC1)C[C@]13CCN(CC1)C(=O)NC1CCCC1`, the cytotoxicity call in the test with HSkMC and in the test with HepG2 was “inactive” each time. Besides, the growth inhibition call in the test on S. aureus RN4220 is “inactive”.

For `Cc1cc(C(=O)Nc2cccc3c2O[C@@H](CN(C)Cc2ccc4c(c2)OCO4)[C@H](C)CN([C@H](C)CO)C3=O)n(C)n1`, the cytotoxicity call with HSkMC and with HepG2 was “inactive” in each case. Also, in the test on S. aureus RN4220, the growth inhibition call is “inactive”.

Consider `C[C@@H]1CN([C@H](C)CO)C(=O)c2cc(NC(=O)CCN3CCOCC3)ccc2O[C@@H]1CN(C)S(=O)(=O)c1ccc(F)cc1`, for which the cytotoxicity call in the test with HSkMC and in the test on HepG2 was “inactive” throughout. Moreover, in the test on S. aureus RN4220, the growth inhibition call was “inactive”.
